These results are taken from the RNAGym collection of RNA variant scans (doi:10.7554/elife.90254).

The source gives no read counts; variants with many changes may rest on few reads.

The labels stand for the following.
B1: LINE1-mini (parent)
chain: GGCAGAGCUCAACACAGCGUGGCAAAGUGGCUGUGGCUAGACUGCC

The variants in the series derive from B1. Kind of series: self-cleavage, relative activity (ratio to wild type); higher = more cleavage; in vitro, sequencing; the parent is a self-cleaving ribozyme.
For the variant G2U C8A C13A C18U U32A, the self-cleavage came to 0.04.
On to G2U A6C C15G, for which the self-cleavage was 0.01.
In the case of G2U C3G C10U G27A G29U, the self-cleavage is 0.13.
As to G2U C8A C10A G29A, the self-cleavage was found to be 0.01.
As for G2U C3G G44C, the self-cleavage came out at 0.23.
For the variant G2U A11C G22U G44C, the self-cleavage stood at 0.02.
With G2U A4G A39U C45G, the self-cleavage stood at 0.04.
The result for G2U C8G G17A C45U reads 0.03; that for G2U C3A C18A U38A, 0.34.
Then G2C U28A G30U, with 0.04; and G2U C3G G17C A24U U32G G40C, with 0.11.
The result for G2U C8U G19A G21A C45G reads 0.07; that for G2U A4U G17C U20A C37A U43A, 0.01; that for G2U A6G U20G G33U, 0.01.
As for G2U A4C A6C C13A, the self-cleavage was determined as 0.04.
G2U A6U A12G C15A: the self-cleavage was found to be 0.03.
The result for G2U A11C G30U U34G G35A reads 0.01; that for G2C U9G G19C G30A C31A, 0.02; that for G2U A4G C8G U9C A24C U28C G44C, 0.01.
Then G2U A6U U9G G36C C42U, with 0.02; and G2U A4U A14C U20A A26C U28A, with 0.02; and G2U A6G C8A U28C G29C, with 0.04.
The result for G2C U34A G36C C42U reads 0.01; that for G2U A12C U32A, 0.
For G2U A16G G19U, the self-cleavage worked out at 0.06.
The result for G2U A6U C13U A24C G30A U38A G40A reads 0.01; that for G2U C3G A16G, 0.02.
Then G2U A14G A16C G27A, with 0.03; and G2U C3A C23A G27A C37G A39C C46U, with 0.02.
Then G2C U20A A26U, with 0.08; and G2U C8G C42A, with 0.04.
Regarding G2C G29A C37G, the self-cleavage turned out to be 0.02.
With G2U A6C A11G, the self-cleavage was 0.04.
The result for G2U A16C C23U reads 0.03; that for G2C U9A C13A A24C G44U, 0.09; that for G2C U34G G40C A41G, 0.02.
The result for G2U A4U G33U reads 0.04.
The result for G2C U9C G27C G33C C37G reads 0.01.
As to G2C G30U C42A, the self-cleavage turned out to be 0.18.
The result for G2U A16G A25U reads 0.12; that for G2U A14G A39C, 0.02; that for G2U C3G G30U, 0.12.
For the variant G2U A4C U38G G44U, the self-cleavage worked out at 0.01.
Then G2C U20G U28A C45U, with 0.01.
As to G2U A4G C10A G30A, the self-cleavage came to 0.03.
For the variant G2U A4U C13G A14U U20A G30U, the self-cleavage amounted to 0.1.
Then G2U C3G C13A G21C C42U, with 0.18.
Then G2U C8G U9A G21U, with 0.01; and G2U C8G A12U C13U, with 0.07.
Then G2U A6C C31G U32A G36A, with 0.01; and G2U C3A C18A G21C U32G C42A C45U, with 0.05.
On to G2C U9A G33U C46G, for which the self-cleavage amounted to 0.02.
The result for G2C U9G C13U A16G C42A reads 0.06; that for G2U C3U C8U A25C, 0.05; that for G2U A12U G17A G21A, 0.02.
Then G2U C3U C37A, with 0.06; and G2U A12G U20C, with 0.02; and G2U A12G U20A, with 0.
The result for G2C G30C C31U A41U reads 0.23; that for G2U A24G G29U C31A, 0.02; that for G2U C3A G19C C31A U34C C45G, 0.03.
As to G2C U9A C18U G29U C31A G36U C42U, the self-cleavage worked out at 0.07.
Regarding G2U C8G C10A C15G G17A, the self-cleavage worked out at 0.01.
The result for G2U A24G G29C G30A reads 0.24; that for G2C U34G G36U, 0.02; that for G2U A11U C13A G21C G35A G40C, 0.
G2C U9A G21A C42A: the self-cleavage was 0.47.
Then G2U C8G C10G A25G C45U C46G, with 0.02; and G2U C8U C15U G33U, with 0.08; and G2U A14C G22C, with 0.04.
The result for G2U C3U A25G U28G reads 0.03; that for G2U A14C G19U A24U C46A, 0.01; that for G2C U9A U38G, 0.06.
The result for G2U A4C A41C reads 0.02.
On to G2U A6G G29U U32G G44C, for which the self-cleavage stood at 0.01.
Then G2U A4G G35U C37A, with 0.03; and G2U C3G G29C, with 0.43.
The result for G2U C3U G7A A16U G30A reads 0.09.
The result for G2U C3U U9A G22U reads 0.35; that for G2U C8G G17A A39G, 0.05.
Consider G2C U9A C18U G22U, for which the self-cleavage was determined as 0.05.
The result for G2C U38C C46A reads 0.04; that for G2U A26G C31U, 0.06.
In the case of G2U A4U G17U U28C G35A, the self-cleavage stood at 0.04.
The result for G2U C3A A6U C23G G35U reads 0.61.
For the variant G2C U9C G17A C31U, the self-cleavage amounted to 0.01.
Then G2U C3U G5A G17U G29A, with 0.06; and G2U A25C G30A, with 0.12; and G2U C3U A14C C15U G19A A24C, with 0.04.
For the variant G2U C3G U34C U38A, the self-cleavage came out at 0.04.
Take G2U A11G G17U G19A G29U: the self-cleavage is 0.02.
Then G2U C3A A4U C18G G19A A24G A26C, with 0.12; and G2U A12G A16G G17C C45U, with 0.07.
Then G2U C3U C8G A25C G27A, with 0.03.
The result for G2U A12G U28C reads 0.
As for G2C G33C G40U, the self-cleavage came to 0.03.
For G2U A14G G19A G44A, the self-cleavage turned out to be 0.02.
Then G2U A24C A26U G44U, with 0.03; and G2U A14G G33U A41C, with 0.01; and G2C G36A U38C A41C, with 0.01.
Consider G2C U34G A39C, for which the self-cleavage came out at 0.02.
On to G2U A14G G17A G35A G36U, for which the self-cleavage is 0.05.
Turning to G2C G35U A41G G44C, the self-cleavage is 0.06.
Then G2U A24G G30C U32C C37U, with 0.01; and G2U A11U G21C, with 0.05.
The result for G2U A12G G27C reads 0.01; that for G2U C8A G40A, 0.11.
With G2U A11U U32G G33A, the self-cleavage was determined as 0.01.
Regarding G2U A4C G19A C45A, the self-cleavage is 0.07.
The result for G2U A6C G40A reads 0.01.
Then G2U C8U G17C C18U A25C G27C, with 0.01; and G2U A11G G35C, with 0.04; and G2U A16C C45A, with 0.03.
Then G2C G36C U38A C46U, with 0.22.
In the case of G2U A11U C37U, the self-cleavage amounted to 0.01.
For the variant G2U C8U A16G U38C, the self-cleavage is 0.08.
Then G2C U9C G17U C23A G29A A41C, with 0.06.
The result for G2U A11U C15U C31U A39G G40A reads 0; that for G2U A4U C8G A16C G27U A39C C46U, 0.
On to G2U A4G C15G G29A C46U, for which the self-cleavage is 0.06.
The result for G2U A11G U32G G36U U43A reads 0; that for G2U A4U C31U, 0.04; that for G2U C8A C45A, 0.11.
For the variant G2U A25C G27U U43C, the self-cleavage stood at 0.01.
The result for G2U A12U A16G G36A reads 0.02; that for G2U A16G A39G, 0.05; that for G2U A4U A26C, 0.03.
Then G2U A6G C10G U38A, with 0; and G2U A4C A11U U34A, with 0.02; and G2U A26U G36A C37U, with 0.02.
The result for G2U A6G C8G U38C G40C reads 0.02.
On to G2C U20A C23U C37A G40U, for which the self-cleavage is 0.04.
For G2C U32A A41G, the self-cleavage was determined as 0.08.
Then G2U A26C G30C G36U A39G, with 0.
Then G2U C8U C15A C18G A24G A26U, with 0.01; and G2C G36C C37A, with 0.02; and G2U C3U A4C C8U G17A, with 0.28.
As to G2C U9G G33C, the self-cleavage worked out at 0.02.
Then G2U A26C C42G, with 0.02; and G2U A25G G27A U28G U43A C46A, with 0.01.
The result for G2C G40U C45U reads 0.2.
Then G2U A4G C13U G27U G29C G35A, with 0.05; and G2U A25U C31U, with 0.05; and G2C G35U C42U, with 0.69.
On to G2U C3U U9C A12U G22U, for which the self-cleavage was determined as 0.03.
The result for G2U A6G G40U reads 0.02; that for G2U A4C C8A G17A, 0.09.
Then G2C G30C C31U G36A C46G, with 0.36.
Then G2C U9C U20G G22U C42U, with 0.07; and G2U C3U G7A U28G, with 0.09; and G2U A14C C31A, with 0.01.
For G2U A4G G19A, the self-cleavage is 0.1.
As for G2C U38A G40U C42U C46U, the self-cleavage came to 0.14.
Consider G2C U9C G29A G30A U34A, for which the self-cleavage came out at 0.01.
Then G2U A6G G21A G22U, with 0.04.
The result for G2U C8A G35U reads 0.03; that for G2U C3G G7U C18A A41G, 0.03.
On to G2U A11U A14C U32C A39C, for which the self-cleavage is 0.02.
The result for G2U A4G A6U C31A G35C C42U reads 0.04; that for G2C G33U U34A C42A, 0.01.
Take G2U A6C G30A: the self-cleavage was 0.51.
The result for G2C U9G U28G G40U reads 0.1; that for G2U A6G U9A U28A, 0.03; that for G2C U20C A24G C31A, 0.07.
The result for G2U A11U G33U G35U U43A reads 0.02; that for G2U A12G G35A A41U, 0.08.
Then G2U A4C A26C C42U, with 0.03.
